Test results taken from patent US12582644B2, “O-GlcNAc transferase inhibitors and uses thereof” (President and Fellows of Harvard College, priority 2018, dated 2026).

How the values were obtained:
[1] = tested on: global O-GlcNAcylation in HEK293T cells; experiment: Western blotting for global O-GlcNAc levels in HEK293T cells; type: cell-based; conditions: for protein O-GlcNAcylation: 20 μM, from 2 hours (FIG. 13E)
full length OGT = target: T1, full length OGT (Homo sapiens, UniProt O15294); experiment: Dissociation constants by microscale thermophoresis (MST); conditions: for Kd: Binding affinity (Kd ± s.d.), binding of compounds to OGT; for Kd compared with 2a and 4a: comparison in words
T1 sequence (O15294 1-1046): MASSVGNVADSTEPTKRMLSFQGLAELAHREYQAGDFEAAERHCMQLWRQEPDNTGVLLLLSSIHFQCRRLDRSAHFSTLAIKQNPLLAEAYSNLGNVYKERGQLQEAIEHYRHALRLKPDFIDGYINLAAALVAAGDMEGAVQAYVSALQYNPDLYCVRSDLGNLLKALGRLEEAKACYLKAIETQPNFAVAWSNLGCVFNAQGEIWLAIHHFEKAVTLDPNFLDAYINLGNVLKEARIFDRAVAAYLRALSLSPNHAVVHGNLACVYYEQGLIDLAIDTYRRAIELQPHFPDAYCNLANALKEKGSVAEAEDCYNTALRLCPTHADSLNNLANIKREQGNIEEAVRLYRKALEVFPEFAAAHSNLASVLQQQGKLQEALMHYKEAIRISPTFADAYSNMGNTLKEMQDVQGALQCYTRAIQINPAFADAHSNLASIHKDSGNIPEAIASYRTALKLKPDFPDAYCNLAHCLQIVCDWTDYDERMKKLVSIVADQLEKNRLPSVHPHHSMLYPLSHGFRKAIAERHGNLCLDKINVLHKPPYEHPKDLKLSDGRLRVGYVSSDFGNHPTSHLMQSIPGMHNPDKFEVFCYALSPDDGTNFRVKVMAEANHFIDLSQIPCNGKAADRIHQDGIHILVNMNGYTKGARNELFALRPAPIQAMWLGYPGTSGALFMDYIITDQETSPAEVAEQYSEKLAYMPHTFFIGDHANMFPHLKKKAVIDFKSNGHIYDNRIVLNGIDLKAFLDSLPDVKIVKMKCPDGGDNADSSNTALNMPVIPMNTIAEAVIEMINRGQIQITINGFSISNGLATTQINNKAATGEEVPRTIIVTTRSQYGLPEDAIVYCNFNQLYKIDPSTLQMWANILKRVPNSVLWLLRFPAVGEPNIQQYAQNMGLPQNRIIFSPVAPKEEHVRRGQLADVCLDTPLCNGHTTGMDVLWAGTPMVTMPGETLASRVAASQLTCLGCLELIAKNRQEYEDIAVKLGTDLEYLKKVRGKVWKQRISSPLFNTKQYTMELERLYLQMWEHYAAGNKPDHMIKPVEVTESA

[2] = tested on: global O-GlcNAcylation in HCT116 cells; experiment: Western blotting for global O-GlcNAc levels in HCT116 cells; type: cell-based
HCT116 cells = experiment: Cell viability and live-cell imaging (IncuCyte confluence, CellTiter-Glo); type: cell-based; conditions: HCT116, 96 hours, 10 or 40 μM
Method: (§1) HCT116 cells were plated into 384-well plate one day prior to treatment with compounds (300 cells per well). Compounds were dispensed using a D300e Digital Dispenser (Tecan). Cells were imaged every 3 hours using an IncuCyte ZOOM instrument (Sartorius) to generate growth curves. After four days of treatment, cell viability was assessed using the CellTiter-Glo® Luminescent Cell Viability Assay (Promega). Luminescence signal was recorded using the GloMax® Explorer System (Promega). For Cytotoxicity, HEK293T cells were plated into a 96-well plate two days prior to treatment with compounds at 80% confluency. The number of dead cells were assessed by CellTox™ Green Cytotoxicity Assay (Promega).

HEK293T cells [3] = experiment: Quantitative proteomics / protein abundance in HEK293T cells; conditions: 4b, 24 hr
HEK293T cells [4] = experiment: CellTox Green Cytotoxicity Assay; type: cell-based; conditions: 24 hours, 0-50 μM
Method: as §1

[5] = tested on: HCF-1 cleavage in HEK293T cells; experiment: HCF-1 cleavage in HEK293T cells (Western blotting); type: cell-based; conditions: 20 μM
Source text: In addition to glycosylating Ser/Thr residues of proteins, OGT catalyzes cleavage of the cell-cycle regulator HCF-1 by glycosylating a glutamate in the HCF-1 cleavage sequence.^4c,7 An OGT inhibitor would be expected to block cleavage. Indeed, a decrease in HCF-1 cleavage products and the appearance of uncleaved HCF-1 in cells treated with 1b, 2b or 4b was observed (FIGS. 2E, 16). Because OGT knockdown is known to decrease cell proliferation,^8 the effects of 1b, 2b, and 4b on cell growth in culture over 96 hours were also monitored. Although there was no evidence of apoptosis, reduced growth of cells was observed over time (FIG. 17), consistent with the knockdown results.

[6] = tested on: OGT's detained intron (intron 4) in HEK293T cells; experiment: Quantitative PCR of OGT detained intron splicing; type: cell-based; conditions: 10 μM, 2-hour treatment
Method: Total RNA was harvested directly from tissue culture plates using Trizol (Life Technologies) according to the manufacturer's directions. In all experiments, total RNA was treated with Turbo DNase (Life Technologies) to remove any residual DNA contamination, extracted in acid-buffered phenol/chloroform, and ethanol-precipitated. Reverse transcription was performed using 2 μg of DNase-treated total RNA in a 20 μL reaction following the manufacturer's protocol (SuperScript III, Life Technologies) for 1 h at 50° C. cDNA reactions were […] diluted 1:10, and 1 μL was used in each PCR reaction. Real-time qRT-PCR was performed using PowerUp SYBR Green (Life Technologies) on a StepOne-Plus Real-Time PCR System (Applied Biosystems).

CCOC(=O)CCCOc1ccccc1[C@H](NS(=O)(=O)c1ccc2[nH]c(=O)ccc2c1)C(=O)N(CC(=O)OCC)Cc1cccs1 [ent-2b, Ethyl (S)-4-(2-(2-((2-ethoxy-2-oxoethyl)(thiophen-2-ylmethyl)amino)-2-oxo-1-((2-oxo-1,2-dihydroquinoline)-6-sulfonamido)ethyl)phenoxy)butanoate]
protein O-GlcNAcylation ([1]; HEK293T): no effect

COc1ccccc1[C@H](NS(=O)(=O)c1ccc2[nH]c(=O)ccc2c1)C(=O)N(CC(=O)O)Cc1cccs1 [ent-1a, (S)—N-(2-(2-methoxyphenyl)-2-((2-oxo-1,2-dihydroquinoline)-6-sulfonamido)acetyl)-N-(thiophen-2-ylmethyl)glycine]
Kd (full length OGT): 4.1 ± 3 µM

COC(=O)CN(Cc1cccs1)C(=O)[C@@H](NS(=O)(=O)c1ccc2[nH]c(=O)ccc2c1)c1ccccc1OC [ent-1b, Methyl (S)—N-(2-(2-methoxyphenyl)-2-((2-oxo-1,2-dihydroquinoline)-6-sulfonamido)acetyl)-N-(thiophen-2-ylmethyl)glycinate]
protein O-GlcNAcylation ([1]; HEK293T): no effect

COC(=O)CCCCOc1ccccc1[C@@H](NS(=O)(=O)c1ccc2[nH]c(=O)ccc2c1)C(=O)N(CC(=O)OC)Cc1cccs1 [3b, Methyl (R)-5-(2-(2-((2-methoxy-2-oxoethyl)(thiophen-2-ylmethyl)amino)-2-oxo-1-((2-oxo-1,2-dihydroquinoline)-6-sulfonamido)ethyl)phenoxy)pentanoate]
O-GlcNAc levels, dose dependence ([2]; HCT116, 20-80 μM, 4 hours or 24 hours): dose dependent decreases in O-GlcNAc levels | O-GlcNAc levels, comparison of inhibitors ([1]; HEK293T, 20 μM (1b, 2b, 3b) or 50 μM (2b, 3b) (FIG. 13A)): 1b and 2b are more effective than 3b

CCOC(=O)CN(Cc1cccs1)C(=O)[C@H](NS(=O)(=O)c1cc2ccc(=O)[nH]c2cc1Cl)c1ccccc1OC [4b, Ethyl (R)—N-(2-((7-chloro-2-oxo-1,2-dihydroquinoline)-6-sulfonamido)-2-(2-methoxyphenyl)acetyl)-N-(thiophen-2-ylmethyl)glycinate]
cell growth (HCT116 cells): reduced cell growth compared with the control | number of proteins that changed significantly (HEK293T cells [3]): 86 | cytotoxic cell death (HEK293T cells [4]): did not result in cytotoxic cell death | HCF-1 cleavage, 4b compared with 2b ([5]; 24 hours): more effective at reducing HCF-1 cleavage | HCF-1 cleavage ([5]; 48 hours): blocked HCF-1 cleavage | detained intron splicing of OGT transcript [6]: increased detained intron splicing | global O-GlcNAc levels, comparison with 1b ([2]; HCT116, 24-hour treatment, 20 μM (FIG. 15B)): more effective than 1b | ability to inhibit global O-GlcNAcylation, ranking ([1]; HCT116, HEK293T, PC3, and LNCaP cells): best activity | global O-GlcNAc levels, 4b compared with 2b ([1]; HEK293T, 24 hours, 20 or 50 μM (FIG. 15A)): greater reductions in O-GlcNAc levels | O-GlcNAc levels, dose dependence ([1]; HEK293T, 24 hours, effects from 5 μM (FIG. 15C)): dose dependent decrease in O-GlcNAc levels | EC50 ([1]; Homo sapiens, HEK-293T, HEK293T, 24 hours, densitometry of Western blot corrected for actin, read-out: EC50 in cells (% O-GlcNAc levels relative to untreated control)): ~3 µM | O-GlcNAc levels ([1]; by 5 μM (FIGS. 2B, 15)): reducing O-GlcNAc levels almost completely

O=C(O)CCCCOc1ccccc1[C@@H](NS(=O)(=O)c1ccc2[nH]c(=O)ccc2c1)C(=O)N(CC(=O)O)Cc1cccs1 [3a, (R)-5-(2-(2-((carboxymethyl)(thiophen-2-ylmethyl)amino)-2-oxo-1-((2-oxo-1,2-dihydroquinoline)-6-sulfonamido)ethyl)phenoxy)pentanoic acid]
Kd (full length OGT): 0.045 ± 0.02 µM | Kd compared with 2a and 4a (full length OGT): an order of magnitude or more higher

COc1ccccc1[C@@H](NS(=O)(=O)c1ccc2[nH]c(=O)ccc2c1)C(=O)N(CC(=O)O)Cc1cccs1 [1a, (R)—N-(2-(2-methoxyphenyl)-2-((2-oxo-1,2-dihydroquinoline)-6-sulfonamido)acetyl)-N-(thiophen-2-ylmethyl)glycine]
Kd (full length OGT): 0.14 ± 0.06 µM | Kd compared with 2a and 4a (full length OGT): an order of magnitude or more higher

O=C(O)CCCOc1ccccc1[C@@H](NS(=O)(=O)c1ccc2[nH]c(=O)ccc2c1)C(=O)N(CC(=O)O)Cc1cccs1 [2a, (R)-4-(2-(2-((carboxymethyl)(thiophen-2-ylmethyl)amino)-2-oxo-1-((2-oxo-1,2-dihydroquinoline)-6-sulfonamido)ethyl)phenoxy)butanoic acid]
Kd (full length OGT): 0.005 ± 0.001 µM

O=C(O)CCCOc1ccccc1[C@H](NS(=O)(=O)c1ccc2[nH]c(=O)ccc2c1)C(=O)N(CC(=O)O)Cc1cccs1 [ent-2a, (S)-4-(2-(2-((carboxymethyl)(thiophen-2-ylmethyl)amino)-2-oxo-1-((2-oxo-1,2-dihydroquinoline)-6-sulfonamido)ethyl)phenoxy)butanoic acid]
Kd (full length OGT): 0.14 ± 0.05 µM
